Data from PubChem BioAssay AID1468 (National Center for Advancing Translational Sciences (NCATS), 2008).
Among all 280,000 compounds or so, about 1,100 (0.39%) were called active. Inconclusive results, whose numbers are uncertain, are shown with a selection of clear calls. The call rests on the fitted dose curve; in most records, active means well fitted inhibition curve with a large enough effect; inconclusive means small, poorly fitted or top-dose-only effect, or effect the other way; inactive means flat fitted curve, though single readings scatter. Potencies of inconclusive entries are left out as doubtful fits.

Target: Microtubule-associated protein tau (Homo sapiens) (UniProt P10636)
Sequence of UniProt P10636 (P10636 whole entry, looked up): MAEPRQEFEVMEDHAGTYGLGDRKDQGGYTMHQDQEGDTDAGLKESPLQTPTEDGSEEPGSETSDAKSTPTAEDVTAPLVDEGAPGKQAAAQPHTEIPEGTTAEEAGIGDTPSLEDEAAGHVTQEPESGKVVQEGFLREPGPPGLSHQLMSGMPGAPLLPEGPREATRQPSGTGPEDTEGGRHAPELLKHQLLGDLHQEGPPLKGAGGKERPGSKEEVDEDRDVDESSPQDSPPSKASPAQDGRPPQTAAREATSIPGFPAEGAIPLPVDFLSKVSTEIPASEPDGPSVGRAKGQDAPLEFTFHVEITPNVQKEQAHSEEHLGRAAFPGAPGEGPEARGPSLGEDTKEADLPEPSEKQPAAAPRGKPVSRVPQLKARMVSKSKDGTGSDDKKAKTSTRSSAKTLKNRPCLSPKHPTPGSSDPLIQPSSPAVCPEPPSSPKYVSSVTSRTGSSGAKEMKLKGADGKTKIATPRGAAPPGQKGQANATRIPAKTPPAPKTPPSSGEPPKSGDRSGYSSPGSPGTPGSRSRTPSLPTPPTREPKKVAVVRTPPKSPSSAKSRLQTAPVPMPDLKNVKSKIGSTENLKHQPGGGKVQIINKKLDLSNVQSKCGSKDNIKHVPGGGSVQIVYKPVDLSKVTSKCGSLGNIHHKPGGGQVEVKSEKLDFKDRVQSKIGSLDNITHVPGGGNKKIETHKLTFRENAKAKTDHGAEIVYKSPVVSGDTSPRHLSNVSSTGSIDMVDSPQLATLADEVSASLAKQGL
Test: qHTS for Inhibitors of Tau Fibril Formation, Fluorescence Polarization; further: nearly all actives have a fitted effect of over 55% in size
Conditions: K18 P301L tau heparin fibrillization, Alexa594 FP, 6 h; series mostly up to 57.7 µM; activity, negative = inhibition: at the top concentration
Procedure, shortened: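 Heparin (20 uM) drove fibril formation of recombinant tau K18 P301L, 15 uM unlabeled with 0.24 uM Alexa 594 label, for 6 hr at 37 C in 100 mM sodium acetate pH 7. Fluorescence polarization (555/632 nm) read 1 hr after 30 uM ThT.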
On the % scale 0 is the no-effect control and ±100 the full control effect; potency means the concentration at half of the fitted maximal effect; tags describe the fitted curve by direction and shape.

| SMILES | Potency | activity, negative = inhibition |
| --- | --- | --- |
| CCN1C(=O)c2ccccc2Sc2ccc(NC(=O)Nc3cccc([N+](=O)[O-])c3C)cc21 | active: 15.8 µM |  |
| COc1ccc(N(C(=O)c2ccc(C(C)(C)C)cc2)S(=O)(=O)c2ccc(Cl)cc2)cc1 |  | inactive: -0.0863% |
| CN(C(=S)Oc1ccc(C(=O)Nc2ccccc2)cc1)c1ccccc1 | inconclusive [inhibitor, single point] |  |
| CCOC(=O)c1c(C)oc2ncnc(Nc3cc(C)cc(C)c3)c12 | inconclusive [inhibitor, single point] |  |
| O=S(=O)(Nc1cc(Sc2cccc3cccnc23)c(O)c2ccccc12)c1ccc(F)cc1 | active: 28.2 µM |  |
| O=C(CNC(=O)c1ccc(Br)o1)OCC(=O)c1cccc([N+](=O)[O-])c1 |  | inactive: 4% |
| COc1ccc(-c2nc(N)nc(C)c2Oc2ccccc2Br)c(O)c1 |  | inactive: -5.81% |
| O=c1c(/C=N/Nc2ccccc2)c(Sc2nnnn2-c2ccccc2)nc2ccccn12 | inconclusive [activator, full curve, poor fit] |  |
| CN1C(=O)/C(=C\C=C2/CCCN2C)N(C)C1=S | inconclusive [inhibitor, single point] |  |
| COc1cc(NC(=O)c2cc(-c3cccc(OC)c3)n[nH]2)cc(OC)c1 | inconclusive [inhibitor, partial curve] |  |
| COC(=O)c1ccc(NC(=O)CC2C(=O)N(c3cccc(OC)c3)C(=O)N2C(C)C)cc1 (stereo unspecified) |  | inactive: -6.7% |
| CCOc1ccc(-n2c(SCC(=O)Nc3ccc(CC)cc3)nc3c(oc4ccccc43)c2=O)cc1 | inconclusive [inhibitor, partial curve] |  |
| CC(C)c1ccc(/C=C/C(=O)n2nnc3ccccc32)cc1 | inconclusive [inhibitor, partial curve] |  |
| Cc1cccc(-n2ncc3c(Nc4ccc(F)cc4)ncnc32)c1 | inconclusive [inhibitor, single point] |  |
| Cc1ccc(NC(=O)CCN2CCN(C/C=C/c3ccccc3)CC2)cc1C |  | inactive: -7.86% |
| CCOc1ccccc1C(=O)NC(C(=O)NCc1ccccc1OC)C(C)C (stereo unspecified) |  | inactive: 5.45% |
| Cc1noc(C)c1S(=O)(=O)Nc1ccc(C(=O)N2CCC(C)CC2)cc1 |  | inactive: -2.35% |
| COC(=O)c1sc2cccc(F)c2c1S(=O)(=O)N1CCN(c2cccc(C)c2)C(C)C1 (stereo unspecified) |  | inactive: -6.69% |
| Cc1ccc(/C=c2\sc3nc(-c4cccs4)nn3c2=O)o1 |  | inactive: -9.02% |
| CCc1ccccc1-n1c(N)c(C(=O)OC)c2nc3ccccc3nc21 |  | inactive: 4.2% |
| O=C(Cc1ccccc1)N/N=C/c1ccc(OC(=O)/C=C\c2ccco2)cc1 | inconclusive [inhibitor, single point] |  |
